The values that follow come from paper PMC6919601, “Identification of Plasmodium dipeptidyl aminopeptidase allosteric inhibitors by high throughput screening” (PLoS ONE, 2019).

The campaign covered roughly 110,000 compounds. About 230 (0.21%) showed an effect of 50% or more. Some of the results follow.
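Further: 30 min substrate incubation versus DMSO and 10 µM JCP410 controls.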

The target of the assay is DPAP1 (Plasmodium falciparum, UniProt Q8IIJ9). The experiment in a line: primary screen, percent inhibition; read by cleavage of a fluorogenic dipeptide substrate; higher = more effect of the substance. On the set-up: species or system P. falciparum D10 trophozoite lysates; single well.
Sequence of DPAP1 (Q8IIJ9 whole entry, looked up): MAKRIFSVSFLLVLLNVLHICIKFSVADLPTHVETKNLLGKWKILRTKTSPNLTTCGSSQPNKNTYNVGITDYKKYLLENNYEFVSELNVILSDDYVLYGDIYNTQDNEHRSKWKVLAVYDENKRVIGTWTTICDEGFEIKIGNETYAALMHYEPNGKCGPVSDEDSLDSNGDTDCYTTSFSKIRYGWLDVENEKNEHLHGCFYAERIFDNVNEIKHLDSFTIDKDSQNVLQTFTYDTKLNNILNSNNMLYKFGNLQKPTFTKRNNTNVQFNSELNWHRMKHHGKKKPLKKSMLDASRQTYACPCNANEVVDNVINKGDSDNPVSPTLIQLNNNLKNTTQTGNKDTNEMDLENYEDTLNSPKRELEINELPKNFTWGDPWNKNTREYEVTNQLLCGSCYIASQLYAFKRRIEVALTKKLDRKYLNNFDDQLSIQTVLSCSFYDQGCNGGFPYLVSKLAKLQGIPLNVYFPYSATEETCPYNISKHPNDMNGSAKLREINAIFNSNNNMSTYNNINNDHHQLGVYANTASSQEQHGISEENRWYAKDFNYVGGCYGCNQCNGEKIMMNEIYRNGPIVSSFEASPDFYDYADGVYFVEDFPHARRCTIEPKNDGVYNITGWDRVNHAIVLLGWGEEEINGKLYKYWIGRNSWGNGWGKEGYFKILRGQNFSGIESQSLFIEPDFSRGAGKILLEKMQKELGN
With `COc1ccc(N2C(=O)CC(N3CCN(C)CC3)C2=O)c(C)c1` (centres unmarked), the “% Inhibition @ 10 uM” value is -7.98%.

For `COc1ccc(C2(O)CSC3=C(C#N)C(c4ccc(OC(C)C)cc4)CC(=O)N32)cc1OC` (centres unmarked), the “% Inhibition @ 10 uM” value was 9.18%.

Regarding `COC(=O)c1ccc(C(=O)Nc2cc(Cl)c(Cl)cc2Cl)cc1[N+](=O)[O-]`, the “% Inhibition @ 10 uM” value was -0.546%.

Turning to `CN(Cc1ccccc1)S(=O)(=O)c1cccc2nsnc12`, the “% Inhibition @ 10 uM” value is -5.57%. Consider `COc1ccc(S(=O)(=O)NCC(=O)Nc2ccc3c(c2)OCCO3)cc1OC`, for which the “% Inhibition @ 10 uM” value was determined as 4%. As for `Cc1ccc(/C=C2/NC(=O)N(Cc3ccc(F)cc3)C2=O)cc1`, the “% Inhibition @ 10 uM” value is recorded as -7.25%. Take `CC(C)c1ccc(NC(=O)C2CC=CCC2C(=O)O)cc1` (centres unmarked): the “% Inhibition @ 10 uM” value came to 6.4%. The figure for `Cc1ccc(S(=O)(=O)N2C(=O)CCC2C(=O)NCCC23CC4CC(CC(C4)C2)C3)cc1` (centres unmarked) is 4.03%. Regarding `O=C(Cn1ccn(Cc2ccccc2)c(=O)c1=O)NCCc1ccccc1`, the “% Inhibition @ 10 uM” value is given as 3.17%.

In the case of `Cc1ccccc1CNC(=O)c1cc2oc3ccccc3c2n1C`, the “% Inhibition @ 10 uM” value stood at 1.72%.

Turning to `COc1ccccc1CC(=N)NOC(=O)COc1ccc(Br)c(C)c1`, the “% Inhibition @ 10 uM” value was -1.4%. Consider `CC(C)Cn1cc(C(=O)NCc2cccnc2)c2c3ccccc3n(C)c2c1=O`, for which the “% Inhibition @ 10 uM” value was -5.85%. As to `CN1C(=O)C(=CNc2cccc(Br)c2)C(=O)N(C)C1=O`, the “% Inhibition @ 10 uM” value was -4.75%.

As for `Fc1ccc(Nc2nc(-c3ccc(Cl)cc3)cs2)cc1`, the “% Inhibition @ 10 uM” value is -0.771%. Regarding `O=C(Nc1ccc(Cl)cc1F)C1CC(=O)N(c2ccc(F)cc2)C1` (centres unmarked), the “% Inhibition @ 10 uM” value was -9.39%.

On to `CCN(CC)CCN(C)C1CC2CCC1C2` (centres unmarked), for which the “% Inhibition @ 10 uM” value is listed as -0.0908%. The figure for `COc1cc(C(=O)Nc2ccc(-c3nc4cc(C)ccc4o3)cc2C)cc(OC)c1OC` is -4.03%; for `CCOC(=O)c1c(C2COc3ccccc3O2)csc1NC(=O)c1ccc(Cl)cc1` (centres unmarked) it is 0.587%; for `Cn1c(=O)c2c(nc(SCC(=O)N3CCCCC3)n2C)n(C)c1=O` it is 2.67%.

Regarding `CCOC(=O)C1=C(C)N(c2ccc(C)cc2)C(=O)/C1=C\c1ccc(C)cc1`, the “% Inhibition @ 10 uM” value is recorded as -6.88%. With `CCC(=O)N(CCc1ccccc1)C1CC(=O)N(c2ccc(Cl)cc2)C1=O` (centres unmarked), the “% Inhibition @ 10 uM” value came out at 0.431%. With `CCOC(=O)c1c(C)nc(C)c(C(=O)OCC)c1-c1cccc([N+](=O)[O-])c1`, the “% Inhibition @ 10 uM” value was 3.98%. As for `O=S1(=O)N(Cc2ccccc2F)CCCN1Cc1c(F)cccc1Cl`, the figure is 8.91%. Turning to `Cc1cc(-c2ccc(Cl)cc2)c(C#N)c(N)n1`, the “% Inhibition @ 10 uM” value is -2.35%. On to `CC(C)CS(=O)(=O)C1=NSC2=NC(=O)/C(=C\c3ccc(O)c(Br)c3)C(=N)N21`, for which the “% Inhibition @ 10 uM” value is -3.39%. Regarding `O=C1CC(c2ccco2)CC(=O)C1=CNCC1NCCc2ccccc21` (centres unmarked), the “% Inhibition @ 10 uM” value is reported as -6.35%. In the case of `O=C1CCCC2=C1C(c1ccc(O)cc1)C1=C(CCCC1=O)O2`, the “% Inhibition @ 10 uM” value is listed as -5.46%. With `CN1CCN(c2nc(-c3ccncc3)nc3ccccc23)CC1`, the “% Inhibition @ 10 uM” value was 2.36%.

For the compound `Cc1ccc(NC(=O)C(C)N2C(=O)c3ccccc3C2=O)cc1` (centres unmarked), the “% Inhibition @ 10 uM” value is -1.42%. On to `O=C(NCCc1ccccc1)C1CCCN(c2ncnc3c2sc2cccc(F)c23)C1` (centres unmarked), for which the “% Inhibition @ 10 uM” value was 1.03%. Take `COc1ccc(C(=O)C2=C(O)C(=O)N(Cc3ccco3)C2c2cccc(O)c2)cc1` (centres unmarked): the “% Inhibition @ 10 uM” value is listed as 5.15%.

With `CCOC(=O)c1c(NC(=O)CSc2nnc(CNC(=O)c3ccco3)n2C)sc2c1CCC2`, the “% Inhibition @ 10 uM” value is listed as 1.75%. Consider `CCOC(=O)c1c(C)[nH]c(C)c1S(=O)(=O)N1CCC(C(=O)N2CCN(C3CCCC3)CC2)CC1`, for which the “% Inhibition @ 10 uM” value is 1.9%. The figure for `COc1nc(Cl)nc(Nc2ccccc2)n1` is -3.66%; for `CCOC(=O)N1CCC(NC(=O)C2=CCN(S(=O)(=O)c3ccccc3)CC2)CC1` it is -3.35%. Consider `Cc1cc(O)c(C(=O)Cc2ccccc2)c(=O)n1C`, for which the “% Inhibition @ 10 uM” value amounted to 4%. For the compound `CCOCCCNC(=O)c1ccc(OC)cc1`, the “% Inhibition @ 10 uM” value came to 2.27%. Regarding `c1cc2c3c(ccc(CSCCc4ccncc4)c3c1)CC2`, the “% Inhibition @ 10 uM” value stood at 1.7%. The figure for `Cn1c(=O)c2c(nc(CN3CCN(C(=O)c4ccco4)CC3)n2Cc2ccccc2)n(C)c1=O` is 1.02%; for `CC(C)c1ccc(C(=O)Nc2nnc(S(=O)(=O)N3CCCCC3)s2)cc1` it is -5.37%; for `O=C(CN1c2cccc3cccc(c23)S1(=O)=O)Nc1ccccc1F` it is 3.42%.

In the case of `Cc1cc(C)c(C#N)c(SCC(=O)NCC(=O)O)n1`, the “% Inhibition @ 10 uM” value stood at 0.408%. With `C=CCn1c(SCC(=O)Nc2nnc(C)s2)nnc1-c1cccnc1`, the “% Inhibition @ 10 uM” value is recorded as -1.18%. Consider `CC(C)c1ccc(CN2CCN(c3ccc([N+](=O)[O-])cc3)CC2)cc1`, for which the “% Inhibition @ 10 uM” value was -0.0404%. The figure for `Cc1nccn1C(=O)c1nn(C)c2c1COc1ccccc1-2` is 9.1%; for `CC(C)CC(=O)N1CCN(Cc2ccccc2F)CC1` it is 10.5%. With `Clc1ccccc1-c1nnc(-c2ccccc2Cl)o1`, the “% Inhibition @ 10 uM” value stood at 2.41%. Turning to `CCOc1ccccc1N1CCN(C(=O)/C=C/c2ccc3c(c2)OCO3)CC1`, the “% Inhibition @ 10 uM” value was 0.0538%.

For the compound `CCC1CCC(N2CCN(c3ccc(Cl)cc3)CC2)CC1` (centres unmarked), the “% Inhibition @ 10 uM” value is -0.0648%. The figure for `CC(O)CN(Cc1cccc(Cl)c1Cl)CC(C)O` (centres unmarked) is -1.5%.
